# Experimental data as given in PubChem BioAssay (Tox21).
# Values joined by “and” are separate entries in the source; they are usually repeats but may differ in a detail not shown here. Equal values may be shown once. The inconclusive results got no clear call from the source; some entries with a clear call stand among them for comparison. For some assays here: Potencies of inconclusive entries are doubtful fits and often do not repeat. Active and inactive are the calls of the source. Calls come from the whole dose curve; as a rule, active = well fitted curve in the direction sought with a large enough effect in the repeat runs; inconclusive = weak or mixed curves; inactive = no such curve, though single readings can be large; an effect the other way counts as inactive or inconclusive.
# Experiments:
# [1] = qHTS RealTime-Glo MT Cell Viability Assay in HepG2 cells - 16 hour (AID 1224885); note: nearly all actives have a fitted effect of over 50% in size; note: potency is the fitted concentration of half-maximal effect
# How it was run: (§1)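 Cell number in HepG2 cultures estimated from NanoLuc luminescence generated by metabolic reduction of a prosubstrate by living cells. The homogeneous, nonlytic format allowed repeated reads at 0, 8, 16, 24, 32 and 40 h of compound exposure.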
# [2] = A CellTox Green Cytotoxicity Assay to monitor cytotoxicity in HEK293 cells - 8 hour (AID 1224884); note: nearly all actives have a fitted effect of over 35% in size; note: potency is the fitted concentration of half-maximal effect
# How it was run: (§2)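 Fluorescence from a DNA-binding dye excluded by viable cells was measured repeatedly in the same HEK293 wells (600 cells/well) during continuous compound exposure at 37 C. Each assay gives one read point: 0, 8, 16, 24, 32 or 40 h.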
# [3] = qHTS RealTime-Glo MT Cell Viability Assay in HEK293 cells - 8 hour (AID 1224887); note: potency is the fitted concentration of half-maximal effect; nearly all actives have a fitted effect of over 50% in size
# How it was run: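 Luminescence, which tracks viable cell number through reduction of the prosubstrate to a NanoLuc substrate, was read over continuous 37 C culture. Cells (600/well) were premixed with reagent and rested 5 h before 23 nL of compound in DMSO was pinned.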
# [4] = qHTS RealTime-Glo MT Cell Viability Assay in HEK293 cells - 24 hour (AID 1224886); note: potency is the fitted concentration of half-maximal effect; nearly all actives have a fitted effect of over 50% in size
# How it was run: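 Homogeneous bioluminescent viability format in HEK293 cells (600 cells/well). Following 5 h at 37 C/5% CO2, 23 nL compound was pintooled; the signal was measured repeatedly during 40 h incubation.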
# [5] = A CellTox Green Cytotoxicity Assay to monitor cytotoxicity in HEK293 cells - 16 hour (AID 1224888); note: nearly all actives have a fitted effect of over 35% in size; note: potency is the fitted concentration of half-maximal effect
# How it was run: as §2
# [6] = qHTS RealTime-Glo MT Cell Viability Assay in HepG2 cells - 0 hour (AID 1224889); note: nearly all actives have a fitted effect of over 50% in size
# How it was run: as §1
# Tags give direction and shape of the fitted curve.
smiles,measurement,setting,value
Cc1ccc2oc(CN(Cc3ccccc3)C(=O)Nc3c(F)cc(F)cc3F)c(-c3ccc(Cl)cc3)c2c1,Potency,[1],"inconclusive: 21.2 µM [cytotoxic, partial curve]"
Brc1c2ccccc2c(Br)c2ccccc12,Potency,[2],"inconclusive: 0.125 µM [activator, single point]"
COC1=C(OC)C(=O)C(CCCCCCCCCCO)=C(C)C1=O,Potency,[2],inactive
same,Potency,[1],"inconclusive: 21.3 µM [cytotoxic, partial curve, poor fit]"
same,Potency,[3],active: 1.69 µM
O=c1cccccc1O,Potency,[2],inactive
same,Potency,[4],"inconclusive: 56 µM [cytotoxic, single point]"
same,Potency,[5],inactive
Cc1cc(C)c(/C=C2\C(=O)Nc3ccccc32)[nH]1,Potency,[2],active: 16.9 µM
same,Potency,[5],active: 10.7 µM
Clc1cc(Cl)c(Cl)nc1Cl,Potency,[2],inactive
O=[N+]([O-])c1ccc(O)cc1,Potency,[2],inactive
COc1cc(C=O)ccc1O,Potency,[2],"inconclusive: 22 µM [activator, partial curve, poor fit] and inactive"
same,Potency,[5],"inconclusive: 49.3 µM [activator, partial curve, poor fit]"
CCCCCCCCCCCCCC[N+](C)(C)C,Potency,[2],"active: 47.3 µM and active: 43.6 µM and inconclusive: 53.5 nM [activator, partial curve]"
same,Potency,[1],"inconclusive: 21.3 µM [cytotoxic, partial curve]"
same,Potency,[4],"inconclusive: 2.13 µM [cytotoxic, full curve]"
same,Potency,[5],active: 47.3 µM and active: 48.9 µM and active: 47.7 nM
O=C1C=CC(=O)N1,Potency,[2],"inconclusive: 25.2 µM [activator, partial curve]"
NS(=O)(=O)O,Potency,[2],inactive
same,Potency,[5],inactive
CN(C)c1ccc(N=Nc2ccccc2C(=O)O)cc1,Potency,[2],inactive
same,Potency,[1],"inconclusive: 43.6 µM [cytotoxic, partial curve]"
CCCCOC(=O)[C@H](C)O,Potency,[2],inactive
CCCOCCC,Potency,[1],inactive
CCCCCCCOC(=O)CCC,Potency,[2],"inconclusive: 61.6 µM [activator, partial curve, poor fit]"
O=[N+]([O-])c1ccc2nc[nH]c2c1,Potency,[1],inactive
C=CC(C)(O)CC/C=C(/C)CCC=C(C)C (stereo not given),Potency,[1],inactive
OC[C@]1(O)OC[C@@H](O)[C@H](O)[C@@H]1O,Potency,[2],"inconclusive: 26.8 µM [activator, single point]"
same,Potency,[5],"inconclusive: 26.8 µM [activator, single point]"
CC(O)COc1ccccc1 (stereo not given),Potency,[2],"inconclusive: 0.952 µM [activator, single point]"
same,Potency,[6],inactive
CCCCCCCC#N,Potency,[1],inactive
O=C(O)Cc1ccc(-c2ccccc2)cc1,Potency,[2],inactive
CCCCCCCCCCCCCCCS(=O)(=O)Oc1ccccc1,Potency,[2],"inconclusive: 13.4 µM [activator, full curve, poor fit]"
same,Potency,[4],"inconclusive: 23.9 µM [cytotoxic, partial curve, poor fit]"
same,Potency,[3],"inconclusive: 15.1 µM [cytotoxic, partial curve, poor fit]"
Nc1nc(-c2ccccc2)c(Br)c(=O)[nH]1,Potency,[1],inactive
CCCCC/C(=C\c1ccccc1)CO,Potency,[2],"inconclusive: 60.9 µM [activator, single point]"
same,Potency,[3],"inconclusive: 27.2 µM [cytotoxic, full curve]"
CC(C)=CCC/C(C)=C/COC=O,Potency,[2],inactive
same,Potency,[1],inactive
O[C@@H](COc1cccc2ncccc12)CN1CCN(C2c3ccccc3[C@@H]3[C@H](c4ccccc42)C3(F)F)CC1 (stereo not given in full),Potency,[1],"inconclusive: 30.1 µM [cytotoxic, partial curve]"
same,Potency,[4],"inconclusive: 23.9 µM [cytotoxic, partial curve, poor fit]"
same,Potency,[3],"inconclusive: 21.3 µM [cytotoxic, partial curve, poor fit]"
O=C1OC(OC(=O)c2cccnc2Nc2cccc(C(F)(F)F)c2)c2ccccc21 (stereo not given),Potency,[1],inactive
CCCCCCCCCCCCOCCOCCOCCOCCOCCOCCOCCOCCOCCO,Potency,[1],"inconclusive: 21.3 µM [cytotoxic, partial curve]"
same,Potency,[3],active: 10.7 µM
COC(=O)[C@H]1[C@H]2C[C@@H]3c4[nH]c5cc(OC)ccc5c4CCN3C[C@H]2C[C@@H](OC(=O)c2cc(OC)c(OC)c(OC)c2)[C@@H]1OC,Potency,[1],"inconclusive: 24.5 µM [cytotoxic, partial curve] and inconclusive: 17.9 µM [cytotoxic, partial curve] and inconclusive: 23.9 µM [cytotoxic, single point]"
same,Potency,[3],active: 4.89 µM and active: 6.34 µM and active: 9.52 µM
